For test [1], the target named is Cytochrome P450 3A7 (Homo sapiens) (UniProt P24462). Put plainly: Cytochrome P450 family 3 subfamily A member 7 (CYP3A7) small molecule antagonists: luciferase biochemical qHTS assay (AID 1963596). Note: nearly all actives have a fitted effect of over 40% in size. Note: potency is the fitted concentration of half-maximal effect. The procedure, abridged: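 Recombinant CYP3A7 P450-Glo luminescent assay: enzyme-proluciferin substrate mix preincubated with compound 10 min at room temperature, reaction started with NADPH regeneration system for 1 h. Luciferin detected by luminescence; ketoconazole as positive control.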
UniProt P24462, sequence (P24462 whole entry, looked up): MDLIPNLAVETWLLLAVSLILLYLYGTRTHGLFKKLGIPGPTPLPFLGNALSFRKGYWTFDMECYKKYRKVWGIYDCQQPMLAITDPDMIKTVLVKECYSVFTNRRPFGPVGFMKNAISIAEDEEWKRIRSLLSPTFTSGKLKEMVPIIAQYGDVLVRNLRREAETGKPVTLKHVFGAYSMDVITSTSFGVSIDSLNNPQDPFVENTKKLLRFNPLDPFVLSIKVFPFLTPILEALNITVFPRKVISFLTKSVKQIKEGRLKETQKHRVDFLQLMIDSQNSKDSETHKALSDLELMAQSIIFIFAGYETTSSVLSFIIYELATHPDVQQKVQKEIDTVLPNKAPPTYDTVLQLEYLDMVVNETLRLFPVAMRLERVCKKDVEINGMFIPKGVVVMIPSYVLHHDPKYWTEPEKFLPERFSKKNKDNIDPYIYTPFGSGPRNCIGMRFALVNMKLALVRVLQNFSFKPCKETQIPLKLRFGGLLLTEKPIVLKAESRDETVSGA
(In general: Quantitative high-throughput screening tests each substance at several concentrations.)

Test [2] can be described thus: Quantitative highthroughput screen to assess conditional lethalithy of P12 Ichikawa cells grown in Human Plasma-Like Medium with dialyzed fetal bovine serum (HPLM+ds) (AID 1963879). Note: nearly all actives have a fitted effect of over 35% in size. The following applies: ATP luminescence, 48 h; at 45.8 µM (top of the series). In short, it runs like this: (§1)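 Each medium arm—HPLM with 10% dialyzed FBS, or RPMI1640 with 5 mM glucose and 10% untreated or dialyzed FBS—was screened against an 11-point, 3-fold compound titration for 48 h at 37 °C, with CellTiter-Glo luminescence as endpoint.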

Test [3] can be described thus: Quantitative highthroughput screen to assess conditional lethalithy of P12 Ichikawa cells grown in RPMI1640 with dialyzed fetal bovine serum (RPMI+ds) (AID 1963880). The following applies: ATP luminescence, 48 h; at 45.8 µM (top of the series). The text has this: Assay Provider: Jason Cantor Ph.D.
Department of Biochemistry
University of Wisconsin-Madison, Madison, WI, USA
Chemical screening studies have identified drug sensitivities across hundreds of cancer cell lines but most putative therapeutics fail to translate. Discovery and development of drug candidates in models that more accurately reflect nutrient levels in human blood is a major challenge. Here we performed high-throughput screens in conventional versus Human Plasma-Like Medium (HPLM) to identify compounds that were "missed" when screening using the artificial culture condition. Sets of conditional anticancer compounds spanned phases of clinical development and included non-oncology drugs were assessed. […] We also traced conditional phenotypes for several chemotherapeutics to availability of HPLM-specific metabolites and confirmed others for compounds whose reported targets are encoded by nonessential genes. Our findings establish generalizable strategies for exploiting conditional lethality in HPLM to reveal therapeutic candidates and mechanisms of action in cancer cells.
Described herein are the results of each viability screens against three cell lines: NOMO1 (an acute myeloid leukemia cell line); P12-Ichikawa (a T-cell acute lymphoblastic leukemia); and SEM (a B-cell ALL). Each assay was screened using 3 different cell culture media: homemade human plasma-Like medium with 10% dialyzed fetal bovine serum (HPLM+ds); RPMI1640 with 10% untreated FBS and 5mM glucose (RPMI+s); and RPMI1640 with 10% dialyzed fetal bovine serum and 5 mM glucose (RPMI+ds).
PROTOCOL TABLE (as described by Inglese J, Shamu CE and Guy RK. 2007)
SEQUENCE No. (e.g., 1, 2, 3, etc.); […] (e.g., Cells, Incubation, Reagent, etc.); VALUE and DESCRIPTION.
1; Cells; 5 uL; white, solid bottom 1536-well Greiner assay plate.
2; Compounds; 23 nL; Kalypsis pin tool (Wako USA) equipped with a 1536-well pin head to transfer to the assay plates.
3; Incubation; 48 hours; 37C incubation.
4; Reagent; 3 uL; CellTiter Glo (Promega).
5; Incubation; 5 min, room temperature
6; Detection; Luminescence, Viewlux PerkinElmer.
NOTES (numbers refer to Sequence numbers above)
1. Briefly, 5 ul of cell reagent was dispensed using a Multidrop Combi Dispenser. The NOMO1 and SEM cells were plated at 500 cells/well and the P12-Ichikawa line at 1000 cells/well.
2. After seeding the cells, 23 nL of MIPE 4.1 library compounds (in DMSO) were added to each plate using a Kalypsys 1536 Pintool dispenser. Bortezomib at final concentration of […] and DMSO were added to each plate as positive and negative controls respectively. For each screen, MIPE 4.1 compounds were added over an eleven-point concentration range […] in 3-fold dilutions.
3. Each plate was covered with a stainless steel gasketed lid to prevent evaporation and incubated for 48 hour at 37C, 95% relative humidity, and 5% CO2.
4-5. Three microliter CellTilter-GloTM luminescent substrate mix (Promega) reagent was added to the assay plate and incubated at room temperature for 5 min.
6. The luminescence signal was measured using a ViewLux (PerkinElmer) multiplate reader with a 2 second exposure time per plate. Data for each compound were normalized as percent viability such that measurements for DMSO and the empty well controls in each plate were defined as 100% and 0%, respectively.

Test [4] is described as follows: Quantitative highthroughput screen to assess conditional lethalithy of P12 Ichikawa cells grown in RPMI1640 with untreated serum (RPMI+s) (AID 1963881).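 Note: 100% = DMSO wells and 0% = empty wells without cells; nearly all actives have a fitted effect of over 35% in size.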 The conditions noted are these: ATP luminescence, 48 h; at 45.8 µM (top of the series). The procedure, abridged: as §1

Structures are written as SMILES. Where “and” joins values, the source holds several entries; their conditions need not be identical. Equal values may be shown once. For some assays here: The hits were mostly taken out for another list; the other results follow. Results filed as inconclusive are left out. Only a part is listed here, and it is no random draw. Calls of active or inactive are those of the source. Calls come from the whole dose curve; as a rule, active = well fitted curve in the direction sought with a large enough effect; inconclusive = small, poorly fitted or top-dose-only effect, or another doubt; inactive = no such curve, though single readings can be large; an effect the other way counts as inactive or inconclusive.

As usually defined, the viability is a read-out of living cells in per cent, often relative to untreated cells.

For `CC(C)(CO)[C@@H](O)C(=O)NCCC(=O)NCCSSCCNC(=O)CCNC(=O)[C@H](O)C(C)(C)CO`, in test [1], the Potency result is “inactive”.
`CCC(C)(CN(C)C)OC(=O)c1ccccc1` (configuration not stated): the Potency entry in test [1] was “inactive”.
As to `CCCCC(=O)OCC(=O)[C@H]1[C@H](C)C[C@H]2[C@@H]3C[C@H](F)C4=CC(=O)C=C[C@]4(C)[C@@]3(F)[C@@H](O)C[C@@]21C`, the Potency in test [1] is active: 0.49 µM.
As for `C[C@@H](O)[C@H]1C(=O)N2C(C(=O)OCOC(=O)C(C)(C)C)=C(SC3CN(C4=NCCS4)C3)[C@H](C)[C@H]12`, the Potency in test [1] was active: 14.1 µM. Also, the viability is inactive: 95.1% in test [2], inactive: 100% in test [3] and inactive: 92.5% in test [4].
Turning to `Cc1c(NC(=O)N2CCOCC2)ccc2c1c1ccccc1n2C(C)C`, the Potency in test [1] is active: 2.13 µM.
For the molecule `CC(C)n1c(=O)c(C(=O)NC2CC3CCC(C2)N3C[C@@H](O)CN(C)S(C)(=O)=O)cc2ccccc21` (some centres not stated), the Potency entry in test [1] is “inactive”.
With `O=C1OCCN1/N=C/c1ccc([N+](=O)[O-])o1`, in test [1], the Potency is active: 15.5 µM and active: 10.7 µM.
For the molecule `C[C@@H]1C[C@H]2[C@@H]3C[C@H](F)C4=CC(=O)C=C[C@]4(C)[C@@]3(F)[C@@H](O)C[C@]2(C)[C@@]1(O)C(=O)CO`, in test [1], the Potency was active: 1.74 µM and active: 1.07 µM.
For the molecule `Cc1cc(/C=C/c2ccc3cc(N(C)C)ccc3[n+]2C)c(C)n1-c1ccccc1`, the Potency in test [1] was active: 11.2 µM.
With `CCc1nc2ccc(C(=O)N3CCN(c4cc(C)ccc4C)CC3)cc2nc1CC`, in test [1], the Potency was active: 10.7 µM.
For the molecule `CCn1cc(C(=O)O)c(=O)c2cc(F)c(N3CCN(C)CC3)cc21`, in test [1], the Potency result is “inactive”.
Turning to `O=C(c1ccc(F)cc1)N1CCC[C@H](c2nc(-c3ccc(F)cc3)no2)C1`, the viability in test [2] was inactive: 95.8%; in test [3] it was inactive: 102%; in test [4], inactive: 103%.

Values taken from PubChem BioAssay (NCATS).
